Among all 39,000 compounds or so, about 220 (0.56%) showed activity. The list shows a part of the results.
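Note: static incubation at 37 °C against the wild-type strain, values averaged over two biological replicates.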

This test concerns Escherichia coli K-12 BW25113. The test can be described thus: relative growth (OD600 normalised to plate interquartile mean) (fraction); higher = less growth inhibition, active = 0.2 or less. The following applies: 50 µM; LB; incubation time: overnight (16-24 h).
For the molecule `COc1ccc(NC(=O)Nc2cccc3c2O[C@H](CN(C)C(=O)Nc2cccc4ccccc24)[C@H](C)CN([C@@H](C)CO)C3=O)cc1`, the relative growth was inactive: 1.02.
As for `COc1ccc(S(=O)(=O)N(C)C[C@@H]2Oc3c(NC(=O)Nc4c(C)noc4C)cccc3C(=O)N([C@@H](C)CO)C[C@H]2C)cc1`, the figure is inactive: 0.988; as for `O=C(NO)c1cccc(C(=O)N/N=C/[C@H](O)[C@@H](O)[C@@H](O)[C@H](O)C(=O)O)c1`, inactive: 0.992; as for `O=C(C[C@@H]1C[C@H]2c3cc(NC(=O)Nc4ccc(C(F)(F)F)cc4)ccc3O[C@H]2[C@H](CO)O1)NCc1cc(F)ccc1F`, inactive: 0.98.
The same measure for `CN1CCN(C(=O)C[C@H]2CC[C@@H]3[C@H](COC[C@@H](O)CN3C(=O)C3CC3)O2)CC1`: inactive: 1; for `Cc1snnc1-c1ccccc1`: inactive: 1.03; for `O=S1(=O)CC=CC1`: inactive: 1.02.
The same measure for `COc1ccc(S(=O)(=O)Nc2cccc3c2O[C@H](CN(C)S(=O)(=O)c2ccc(F)cc2)[C@@H](C)CN([C@H](C)CO)C3=O)cc1`: inactive: 0.978.
For `N#C[C@H]1NCc2cnnn2Cc2ccccc21`, the relative growth is inactive: 0.971.
As for `C[C@@H]1CCCCO[C@@H](CN(C)C(=O)Nc2ccc(F)cc2)[C@@H](C)CN([C@H](C)CO)C(=O)c2cc(NC(=O)Nc3ccc(F)cc3)ccc2O1`, the figure is inactive: 0.979; as for `Cc1noc(C)c1S(=O)(=O)Nc1ccc2c(c1)C(=O)N([C@H](C)CO)C[C@H](C)[C@@H](CN(C)C)OCCCC[C@H](C)O2`, inactive: 0.985; as for `C[C@H]1CCCCO[C@H](CN(C)Cc2ccc(C(F)(F)F)cc2)[C@@H](C)CN([C@@H](C)CO)C(=O)c2cc(NS(=O)(=O)c3cn(C)cn3)ccc2O1`, inactive: 1.04.
As for `CN(C)c1ncnc2c1ncn2[C@H]1O[C@@H](CO)[C@@H](N)[C@@H]1O`, the figure is inactive: 0.969.
The same measure for `C[C@H]1CN([C@@H](C)CO)C(=O)CCCn2nncc2CO[C@H]1CN(C)S(=O)(=O)c1ccccc1C#N`: inactive: 0.986; for `Cc1noc(C)c1S(=O)(=O)N(C)C[C@@H]1Oc2c(NC(=O)C3CC3)cccc2C(=O)N([C@@H](C)CO)C[C@@H]1C`: inactive: 1.02.
Turning to `C[C@@H]1CCCCO[C@@H](CN(C)C(=O)Nc2ccc(C(F)(F)F)cc2)[C@H](C)CN([C@@H](C)CO)C(=O)c2cc(NC(=O)Nc3ccc(C(F)(F)F)cc3)ccc2O1`, the relative growth was inactive: 0.988.
As for `N#Cc1ccc(-c2ccccc2F)o1`, the figure is inactive: 0.928; as for `C[C@@H]1CN([C@@H](C)CO)C(=O)c2cc(NC(=O)Nc3ccc(F)cc3)ccc2O[C@@H]1CN(C)Cc1ccc(Cl)c(Cl)c1`, inactive: 1.02; as for `COc1cccc(NC(=O)C[C@@H]2CC[C@@H]3[C@H](COc4ccc(NC(=O)C5CCOCC5)cc4C(=O)N3C)O2)c1`, inactive: 1.01.
The same measure for `CC1OC(OC2C(CO)OC(OC3C(CO)OC(O)C(O)C3O)C(O)C2O)C(O)C(O)C1NC1C=C(CO)C(O)C(O)C1O` (configuration not stated): inactive: 1.01; for `COc1cc2c(cc1OC)-c1onc(-c3ccc(OCCO[Si](C(C)C)(C(C)C)C(C)C)cc3)c1CCCN(C[C@@H](C)OC(=O)NCCCCCC(=O)NO)CC2`: inactive: 0.981.
As for `Cc1noc(C)c1S(=O)(=O)Nc1ccc2c(c1)CC(=O)N([C@H](C)CO)C[C@@H](C)[C@@H](CN(C)Cc1ccc(Oc3ccccc3)cc1)O2`, the figure is inactive: 0.987.
Consider `COc1ccc(C(=O)Nc2ccc3c(c2)C(=O)N(C)[C@@H]2CC[C@@H](CC(=O)NCC4CC4)O[C@@H]2CO3)cc1`, for which the relative growth was inactive: 1.02.
As for `CC(C)(C)OC(=O)C[C@H]1CC=CC[C@H](CC(=O)NCCO)C(=O)N[C@H](Cc2ccccc2)COC1=O`, the figure is inactive: 1.01; as for `Cn1ccc(C(=O)O)cc1=O`, inactive: 0.989.
For `C[C@@H]1CN([C@H](C)CO)C(=O)c2cc(NC(=O)CCCN(C)C)ccc2O[C@@H]1CN(C)C(=O)Nc1ccccc1`, the relative growth was inactive: 0.996.
As for `C[C@@H]1CN([C@@H](C)CO)C(=O)c2cccc(NC(=O)c3nc4ccccc4s3)c2O[C@H]1CN(C)S(C)(=O)=O`, the figure is inactive: 1.01.
As for `O=C(C[C@H]1C[C@H]2c3cc(NS(=O)(=O)c4ccccc4)ccc3O[C@H]2[C@@H](CO)O1)NC1CCCCC1`, the figure is inactive: 1.02.
As to `CC(C)NC(=O)N(C)C[C@@H]1Oc2c(NS(=O)(=O)c3ccc(F)cc3)cccc2C(=O)N([C@H](C)CO)C[C@@H]1C`, the relative growth was inactive: 1.02.
As for `C[C@H]1CN([C@@H](C)CO)C(=O)c2c(c3ccccc3n2C)-c2ccccc2CO[C@H]1CN(C)Cc1cccc(C(=O)O)c1`, the figure is inactive: 0.987.
The same measure for `COC(=O)C1=C2CC[C@H](COC(=O)NCCCCCC(=O)NO)NC(=O)N[C@H](Cc3ccccc3)c3cn(nn3)C[C@@H](Cc3ccccc3)NC(=O)c3oc(c(C(=O)OC)c3C(=O)OC)CC[C@H](COC(=O)NCCCCCC(=O)NO)NC(=O)N[C@H](Cc3ccccc3)c3cn(nn3)C[C@@H](Cc3ccccc3)NC(=O)C(=C1C(=O)OC)O2`: inactive: 0.978; for `C[C@H](O)[C@H](O)[C@@H](O)[C@@H](O)/C=N/NC(=O)CCCCC(=O)NO`: inactive: 0.985.
In the case of `C[C@@H]1CN([C@@H](C)CO)C(=O)c2cc(NS(=O)(=O)c3cccs3)ccc2O[C@@H](C)CCCCO[C@H]1CN(C)CC1CCCCC1`, the relative growth is inactive: 1.01.
As for `COc1ccc(CN(C)C[C@@H]2Oc3ccc(NS(C)(=O)=O)cc3C(=O)N([C@@H](C)CO)C[C@@H]2C)cc1`, the figure is inactive: 0.985; as for `CCN(CC)CCNC(=O)c1c(C)[nH]c(/C=C2/C(=O)Nc3ccc(-c4csc(-c5ccccc5)n4)cc32)c1C`, inactive: 0.963; as for `CC(C)(CO)[C@@H](O)C(=O)NCCC(=O)NCCSSCCNC(=O)CCNC(=O)[C@H](O)C(C)(C)CO`, inactive: 0.976.
Regarding `C[C@@H]1CN([C@H](C)CO)C(=O)c2cc(NC(=O)c3ccncc3)ccc2O[C@@H]1CN(C)S(=O)(=O)c1cccs1`, the relative growth was inactive: 0.99.
As for `C[C@@H]1CN([C@H](C)CO)C(=O)c2cc(NC(=O)Nc3ccc(C(F)(F)F)cc3)ccc2O[C@@H](C)CCCCO[C@H]1CN(C)S(C)(=O)=O`, the figure is inactive: 1.01; as for `C[C@@H]1CCCCO[C@@H](CN(C)S(=O)(=O)c2ccc(F)cc2)[C@@H](C)CN([C@@H](C)CO)C(=O)c2cc(NC(=O)Nc3cccc4ccccc34)ccc2O1`, inactive: 1.02.
As for `C[C@H]1CN([C@@H](C)CO)C(=O)c2cccc(NC(=O)c3cnccn3)c2O[C@@H]1CN(C)S(=O)(=O)c1ccccc1`, the figure is inactive: 0.981; as for `Cc1noc(C)c1NC(=O)Nc1ccc2c(c1)C(=O)N([C@H](C)CO)C[C@@H](C)[C@@H](CN(C)Cc1ccc(C(=O)O)cc1)OCCCC[C@H](C)O2`, inactive: 0.988.
As to `C[C@H]1CN([C@@H](C)CO)C(=O)Cc2cc(NC(=O)CCN3CCOCC3)ccc2O[C@H]1CN(C)S(=O)(=O)c1ccc(F)cc1`, the relative growth was inactive: 1.01.
Take `COCCOC(=O)N1C(=O)[C@@]2(c3cc(C#Cc4ccc(OC)cc4)ccc31)[C@H](c1ccccc1OCCO)N1[C@H](c3ccccc3)[C@H](c3ccccc3)OC(=O)[C@H]1[C@@H]2C(=O)NC[C@H](O)c1ccccc1`: the relative growth is inactive: 1.09.
With `C[C@@H]1CN([C@H](C)CO)C(=O)c2cc(NC(=O)Nc3ccc(F)cc3)ccc2O[C@@H]1CN(C)Cc1ccc(C(=O)Nc2ccccc2N)cc1`, the relative growth is inactive: 0.981.
With `C[C@H]1CN([C@@H](C)CO)C(=O)c2cc(C#CCN(C)C)cnc2O[C@@H]1CN(C)C(=O)Nc1cc(F)ccc1F`, the relative growth was inactive: 1.01.
As for `CC(=O)NC[C@H]1CN(c2ccc(N3CCN(C(=O)CO)CC3)c(F)c2)C(=O)O1`, the figure is inactive: 0.38.
As for `CC(C)NC(=O)N(C)C[C@H]1OCCCC[C@@H](C)Oc2ccc(NC(=O)C3CCCCC3)cc2C(=O)N([C@H](C)CO)C[C@H]1C`, the figure is inactive: 1.
As for `Cc1ccc(S(=O)(=O)N(C)C[C@H]2OCCCC[C@H](C)Oc3ccc(NC(=O)Nc4cccc5ccccc45)cc3C(=O)N([C@H](C)CO)C[C@H]2C)cc1`, the figure is inactive: 1.04; as for `C[C@@H]1CCCCO[C@@H](CN(C)Cc2ccncc2)[C@H](C)CN([C@@H](C)CO)C(=O)c2cc(NC(=O)Cc3ccccc3)ccc2O1`, inactive: 0.999.
In the case of `O=C1N[C@H](c2ccccc2)COCc2cn(nn2)CC[C@@H](Cc2ccc(C(F)(F)F)cc2)C(=O)N[C@H](c2ccccc2)COCc2cn(nn2)CC[C@H]1Cc1ccc(C(F)(F)F)cc1`, the relative growth was inactive: 1.01.
As for `C[C@@H]1CN([C@@H](C)CO)C(=O)Cc2cc(NC(=O)Nc3ccccc3)ccc2O[C@H]1CN(C)C(=O)Nc1ccc(C(F)(F)F)cc1`, the figure is inactive: 0.975; as for `COc1ccc(S(=O)(=O)Nc2ccc3c(c2)C(=O)N([C@H](C)CO)C[C@H](C)[C@H](CN(C)Cc2ccc(Cl)c(Cl)c2)O3)cc1`, inactive: 1.01.
`Cc1ccc(S(=O)(=O)Nc2ccc3c(c2)CC(=O)N([C@H](C)CO)C[C@H](C)[C@@H](CN(C)C(=O)Nc2cccc4ccccc24)O3)cc1`: the relative growth is inactive: 0.989.
In the case of `C[C@H]1CN([C@@H](C)CO)C(=O)Cc2cc(NS(=O)(=O)c3cn(C)cn3)ccc2O[C@H]1CN(C)C(=O)Nc1ccc2c(c1)OCO2`, the relative growth is inactive: 1.03.
As for `C[C@@H]1CN([C@@H](C)CO)C(=O)c2cc(C#CCN(C)C)cnc2O[C@H]1CN(C)C(=O)CN1CCOCC1`, the figure is inactive: 1.03; as for `COc1ccc(NC(=O)Nc2ccc3c(c2)C(=O)N([C@H](C)CO)C[C@H](C)[C@@H](CN(C)Cc2ccccc2)OCCCC[C@H](C)O3)cc1`, inactive: 0.993.
The same measure for `O=C(O)CCCCCCNC(=O)c1ccc(NCc2cn(Cc3ccc(Cn4cc(CNc5ccc(C(=O)NCCCCCCC(=O)NO)cc5)nn4)cc3)nn2)cc1`: inactive: 0.991.

Values taken from the supplement of paper PMC9446081.
